Laboratory results reported in the supplement of paper PMC3334620.
Over roughly 33,000 sequences, “E-score (-0.5 to 0.5)” has its median near -0.041; the highest 2% begin near 0.37. This is one part of the list.

molecular target: T1, Ecm22 (UniProt Q05958); experiment: PBM E-score (8-mer binding enrichment) (E-score (-0.5 to 0.5)); higher = stronger / more preferred TF binding; most listed sequences are background and not binding sites; conditions: protein concentration: 200 nM; construct: GST-full length
T1 sequence: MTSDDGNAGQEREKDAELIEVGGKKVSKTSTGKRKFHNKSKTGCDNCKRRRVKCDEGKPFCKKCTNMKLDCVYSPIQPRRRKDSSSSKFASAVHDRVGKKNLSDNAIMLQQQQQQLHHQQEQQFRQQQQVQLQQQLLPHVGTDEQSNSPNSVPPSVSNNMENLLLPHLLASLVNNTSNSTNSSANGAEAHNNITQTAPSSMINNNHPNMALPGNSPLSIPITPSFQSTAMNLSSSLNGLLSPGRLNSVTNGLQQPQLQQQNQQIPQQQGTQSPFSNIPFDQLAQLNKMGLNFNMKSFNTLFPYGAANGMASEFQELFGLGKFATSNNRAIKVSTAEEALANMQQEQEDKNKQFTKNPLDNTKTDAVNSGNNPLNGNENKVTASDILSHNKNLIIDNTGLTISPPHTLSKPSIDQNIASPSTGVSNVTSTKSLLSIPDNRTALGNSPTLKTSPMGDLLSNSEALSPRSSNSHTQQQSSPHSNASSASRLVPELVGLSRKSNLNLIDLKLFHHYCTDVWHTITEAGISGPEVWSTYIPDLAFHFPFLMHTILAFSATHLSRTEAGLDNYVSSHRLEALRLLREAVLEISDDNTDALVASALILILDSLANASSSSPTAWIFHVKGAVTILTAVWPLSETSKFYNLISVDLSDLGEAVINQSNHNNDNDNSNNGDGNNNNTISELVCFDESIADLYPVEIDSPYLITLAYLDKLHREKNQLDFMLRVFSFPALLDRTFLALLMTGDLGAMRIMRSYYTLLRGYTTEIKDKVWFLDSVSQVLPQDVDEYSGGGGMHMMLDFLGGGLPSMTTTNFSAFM
Outline: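 Yeast transcription factors carrying a GST tag, as full-length proteins or DNA-binding domains, were produced by PURExpress in vitro transcription/translation. About 100-200 nM protein was applied to universal all-10-mer Agilent arrays, double-stranded by primer extension on fresh or once-stripped slides. Bound protein was detected with fluorescent anti-GST, and scans were normalised with masliner. The Universal PBM Analysis Suite gave each ungapped eight-base word, pooled with its reverse complement, an E-score, a modified Wilcoxon-Mann-Whitney statistic.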

| Sequence | PBM E-score |
| --- | --- |
| CTCTGAAA | -0.223 |
| ATCTCCCG | -0.0893 |
| CGTTAGTC | 0.0681 |
| ACTAGGAA | -0.246 |
| ATCGAATC | -0.0353 |
| GCAAATGC | -0.24 |
| CCGCCGAC | -0.0824 |
| AATTAGGT | -0.09 |
| CGGACGTA | 0.205 |
| AATTATGC | 0.0879 |
| GCCTCAGC | -0.233 |
| CATCTATA | 0.0724 |
| CCGCCCGG | 0.00167 |
| GAGCAGTA | -0.00126 |
| AATGATCA | -0.0568 |
| GCATTCGC | 0.164 |
| CTCGTGTC | 0.314 |
| CTACTTTA | -0.0575 |
| TGAGTCAA | -0.067 |
| AGCCAGCA | -0.308 |
| AACGGTAC | 0.328 |
| CTCTAAGA | -0.202 |
| GACTCAAA | 0.0153 |
| AACGCTCA | 0.0883 |
| CCTGCCCC | -0.142 |

| Sequence | PBM E-score |
| --- | --- |
| CCACTTAG | -0.128 |
| CTATTATC | 0.125 |
| CAAACACC | -0.00172 |
| ATTCCGGC | -0.227 |
| CAATCTGC | -0.146 |
| GATGAGTA | -0.0391 |
| CAGCGTCC | -0.0894 |
| CAAAACCA | -0.0331 |
| GAATCTTA | 0.0749 |
| ATAAGTGC | -0.13 |
| AAAACCTG | 0.00105 |
| GATTCACA | -0.0511 |
| GTCTCAAA | -0.0696 |
| GTGGCTGA | -0.228 |
| GTAGGGAA | 0.0223 |
| GTCTTACA | -0.135 |
| ACAGCTTC | 0.0681 |
| CGGGATGA | 0.00392 |
| CAGTTTAG | -0.0933 |
| CAAACCTC | -0.234 |
| CCCTCGTC | 0.119 |
| CGTCCTGA | -0.174 |
| CTCAAAAC | -0.0415 |
| CCATCACG | 0.00086 |
| ACACGACC | 0.186 |

| Sequence | PBM E-score |
| --- | --- |
| GTAGTGCA | -0.136 |
| AGACTTGG | -0.225 |
| CTGCTCAC | -0.0919 |
| CTGTCAAC | 0.0474 |
| GAACTGTA | 0.0211 |
| GGCATCAA | -0.237 |
| CAAATAGG | -0.0548 |
| ACCTGCGA | 0.07 |
| CCGGCCTC | -0.0596 |
| CATCTCGA | -0.0798 |
| GCCGGTAA | -0.0142 |
| ATAGTTCC | -0.0217 |
| AACTAACT | -0.0882 |
| CAAATTCG | 0.136 |
| GCAGAACC | -0.0493 |
| TCAAAAGA | -0.147 |
| ACCAACGC | -0.0181 |
| AGGATAAA | -0.125 |
| AATTCGCG | 0.201 |
| AGGAAACA | 0.0582 |
| ATTGTTAG | -0.11 |
| GTATTCTA | 0.0983 |
| CTGATGGC | -0.152 |
| AATTTGTA | 0.138 |
| TAGCTCGA | -0.0421 |

| Sequence | PBM E-score |
| --- | --- |
| CCTTCTGC | -0.243 |
| GACGACCA | 0.097 |
| AATCAGCA | -0.116 |
| ACAACATA | 0.0339 |
| ATACGGAG | 0.385 |
| ATTTCGAG | -0.016 |
| CGTAGTAG | 0.109 |
| AATAGCAA | 0.0594 |
| CGTAGCGC | 0.273 |
| GAATCGCA | -0.0229 |
| GCTTCTTA | -0.0116 |
| ATGCGTTA | 0.167 |
| AAAAGCAA | -0.0638 |
| ATTGGTAG | -0.145 |
| ATCCCGAC | 0.0577 |
| GGTAAGTA | 0.00832 |
| GCCGTAGA | 0.213 |
| ACCGATAC | 0.342 |
| ACAAGACA | 0.0576 |
| AGGGGCAG | -0.261 |
| ATGCCTAC | -0.201 |
| GTTTGTCA | 0.04 |
| AGAATTAG | -0.0877 |
| CCTGACTA | -0.143 |
| TGAAGCAA | -0.206 |

| Sequence | PBM E-score |
| --- | --- |
| ATAATCTC | 0.0283 |
| GGTCTTTA | -0.0988 |
| ATGCGAAC | 0.278 |
| ATCGTTAG | 0.201 |
| AATCGAGA | 0.101 |
| CCGCGCTC | 0.0324 |
| AACCTGCT | 0.0663 |
| CATTTACG | 0.292 |
| GAACTCGA | -0.128 |
| AGAAAAGA | -0.0437 |
| CACCAATG | -0.115 |
| AGAGTCGG | 0.0823 |
| TCTACGCA | 0.041 |
| AAAAATCT | 0.15 |
| TCTAAGCA | -0.321 |
| AATAGTGG | -0.102 |
| GGATGTGA | -0.253 |
| GCAACCGA | 0.141 |
| AACGAGGA | 0.449 |
| GAACCCGC | 0.0274 |
| CGGTCGGC | 0.229 |
| AGAGTTAA | -0.111 |
| GGAATTCC | -0.244 |
| AACTTGCC | -0.085 |
| AACCCGTG | -0.11 |

| Sequence | PBM E-score |
| --- | --- |
| CGAAGTTC | 0.11 |
| AAGTCACG | -0.166 |
| ATAATCCC | -0.0249 |
| ATAACCAA | -0.131 |
| CAAAATCC | 0.0583 |
| AGCCACAA | -0.114 |
| GAAGACAC | 0.197 |
| CCGATGGA | 0.0874 |
| CGTTTAAA | 0.453 |
| AGTTTAGC | -0.19 |
| CAGTTTAC | 0.069 |
| AATGCACG | 0.0842 |
| GACCTCGC | 0.243 |
| ACGTACAT | 0.233 |
| ATTGGTGG | -0.181 |
| GTCATAGA | -0.115 |
| CCGTGAAG | -0.139 |
| CTTTCTGC | -0.0383 |
| GTTCTTAA | -0.0482 |
| CATCGGTA | -0.0221 |
| CTTAATCC | -0.255 |
| GGGGTGAA | -0.304 |
| GCAGTCCC | -0.272 |
| AATTGGAC | -0.153 |
| CCATGCGC | -0.166 |

| Sequence | PBM E-score |
| --- | --- |
| AGGACCCA | -0.28 |
| GGCTACGA | 0.424 |
| ACGCAGTC | 0.0272 |
| CATCATCC | -0.0318 |
| AATGTACA | 0.162 |
| CCTAGTAA | -0.341 |
| AACTATAG | -0.195 |
| GGTGCACC | -0.207 |
| CAGAATCA | 0.00782 |
| CTCGACCA | -0.0786 |
| GCCGAATA | 0.218 |
| GCACTTAA | 0.0583 |
| AAACGGAT | 0.33 |
| ACCTGACT | 0.0283 |
| ATTGCTCG | 0.123 |
| CTTTCAAA | 0.0357 |
| CCGTCTAC | 0.0314 |
| CACGCCTC | -0.0418 |
| CCGAGGCA | 0.0444 |
| AAGACAGG | 0.0458 |
| ACCTCGAT | 0.0952 |
| GAGAGTCC | -0.0455 |
| CTTTATGA | -0.231 |
| CCGCGAAG | -0.0264 |
| AATTGTAG | 0.0301 |

| Sequence | PBM E-score |
| --- | --- |
| AAAAGCGG | -0.168 |
| CGACGCCA | 0.0866 |
| AGTGTCCA | -0.0514 |
| AGAACTGC | 0.0657 |
| AGATCACG | 0.0249 |
| GACAGTTA | -0.0114 |
| TCCGCGAA | 0.0484 |
| AAATAAAG | -0.0876 |
| ATCACGAA | 0.109 |
| TCACTAAA | 0.0449 |
| CGACTAAA | -0.0294 |
| AGCACAGG | -0.12 |
| AGTAGGTC | 0.168 |
| CCAGGTGC | -0.119 |
| AGGTCCCA | -0.188 |
| CGGGGGAA | -0.141 |
| AGTAGGAA | -0.104 |
| CCGGTCCA | -0.31 |
| AGCTTAGG | -0.31 |
| CAGGTCCG | 0.0456 |
| ACCTAGAC | -0.0874 |
| CTAGTTCC | 0.156 |
| CTCCAAAC | -0.0257 |
| CTCACCTA | -0.205 |
| CACGTTTA | 0.256 |

| Sequence | PBM E-score |
| --- | --- |
| GGTGTGCA | -0.262 |
| TACTCCTA | -0.182 |
| GTGAACCA | -0.0791 |
| GTGCCAGA | -0.169 |
| CGGTATAC | 0.259 |
| GGTATGCA | -0.0053 |
| CGCTTGGA | -0.0885 |
| CAGTATGC | -0.15 |
| TATCTCGA | -0.0267 |
| AGTGTAAA | -0.0627 |
| GCCTCACC | -0.149 |
| GGCTCGAC | -0.231 |
| AGAGGCCT | -0.0513 |
| ATCGATGG | 0.00668 |
| AAGGTTGC | -0.355 |
| AAATCTAA | -0.156 |
| AGTTTTGA | -0.129 |
| GCAGCAAA | -0.0527 |
| GATCCTCC | -0.123 |
